Test results reported in paper PMC6664820, “Novel natural and synthetic inhibitors of solute carriers SGLT1 and SGLT2” (Pharmacology Research & Perspectives, 2019).
Out of some 1,900 compounds screened, about 40 (2%) showed an effect of 50% or more. The list shows a part of the results.

The molecules below were run against human SGLT1 (hSGLT1) (human, UniProt P13866) (assay: primary screen, percent of control activity; higher = less effect of the substance). Conditions: 50 µM.
Parameters: single well
Method in brief: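 Single-point screen at 50 µmol/L in CHO-hSGLT1 cells, with 160 µmol/L 1-NBD-glucose in glucose-free DMEM for 90 min at 37°C. Fluorescence from isopropanol extracts was calibrated, and CHO wild-type uptake was subtracted. Data are percent of uptake without compound.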

Chain of human SGLT1 (hSGLT1) (P13866 whole entry, looked up): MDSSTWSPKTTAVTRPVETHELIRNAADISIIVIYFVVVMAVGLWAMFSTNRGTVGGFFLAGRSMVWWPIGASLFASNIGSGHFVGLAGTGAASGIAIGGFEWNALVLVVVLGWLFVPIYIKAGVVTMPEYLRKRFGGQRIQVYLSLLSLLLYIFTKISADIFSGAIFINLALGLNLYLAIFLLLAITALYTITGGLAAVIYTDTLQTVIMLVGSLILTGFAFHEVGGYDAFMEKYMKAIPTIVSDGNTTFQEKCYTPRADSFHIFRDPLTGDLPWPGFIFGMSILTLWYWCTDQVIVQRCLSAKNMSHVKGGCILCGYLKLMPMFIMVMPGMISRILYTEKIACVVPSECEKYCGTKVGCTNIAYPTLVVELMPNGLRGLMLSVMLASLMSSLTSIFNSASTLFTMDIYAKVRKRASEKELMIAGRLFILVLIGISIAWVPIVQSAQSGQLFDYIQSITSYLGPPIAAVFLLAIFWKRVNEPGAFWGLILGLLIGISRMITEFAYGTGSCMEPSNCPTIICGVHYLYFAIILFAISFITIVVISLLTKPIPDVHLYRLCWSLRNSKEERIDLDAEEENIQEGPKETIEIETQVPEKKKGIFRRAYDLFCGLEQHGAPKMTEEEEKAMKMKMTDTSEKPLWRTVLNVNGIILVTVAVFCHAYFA

Structure (SMILES) | NORMALIZED SGLT1 ACTIVITY (%)
COC(=O)[C@H]1[C@H]2C[C@H]3c4[nH]c5ccccc5c4CCN3C[C@H]2CC[C@@H]1O.Cl | 110%
C1CCc2nnnn2CC1 | 142%
CCN(CC)C(=O)N1CCN(C)CC1.O=C(O)CC(O)(CC(=O)O)C(=O)O | 96%
COC(=O)C[C@H]1C(C)(C)[C@@H](OC(C)=O)[C@@H]2CC3=C4CC(=O)O[C@@H](c5ccoc5)[C@]4(C)CCC3[C@@]1(C)C2=O (stereo partly shown) | 118%
Oc1cccc(O)c1 | 92%
Cc1cc(O)cc(C)c1Cl | 597%
Cl.Nc1c2c(nc3ccccc13)CCCC2 | 127%
Cc1cccc(Nc2ccncc2S(=O)(=O)NC(=O)NC(C)C)c1 | 79%
C1CCN2C[C@@H]3C[C@H](CN4CCCC[C@@H]34)[C@H]2C1.I | 69%
COc1ccc([C@H]2COc3c(ccc(O)c3OC)C2)c(OC)c1O | 120%
C=C(C)[C@@H]1CC[C@]2(CO)CC[C@]3(C)[C@H](CC[C@@H]4[C@@]5(C)CC[C@H](O)C(C)(C)[C@@H]5CC[C@]43C)[C@@H]12 | 93%
Nc1ccc(S(N)(=O)=O)cc1 | 207%
CC(=O)O[C@H]1C(=O)[C@@]2(C)[C@H]([C@H](OC(=O)c3ccccc3)[C@]3(O)C[C@H](OC(=O)[C@H](O)[C@@H](NC(=O)c4ccccc4)c4ccccc4)C(C)=C1C3(C)C)[C@]1(OC(C)=O)CO[C@@H]1C[C@@H]2O | 90%
CC(=O)OCC(=O)[C@@]1(O)CCC2C3CC[C@@H]4C[C@H](OC(C)=O)CC[C@]4(C)C3C(=O)C[C@@]21C (stereo partly shown) | 106%
O=C1c2cccc(O)c2C(=O)c2c(O)cccc21 | 137%
COc1cc2c(cc1OC)-c1cc3ccc(OC)c(OC)c3c[n+]1CC2.O | 109%
O=C1OC(c2ccc(O)cc2)(c2ccc(O)cc2)c2ccccc21 | 276%
NS(=O)(=O)c1cc2c(cc1Cl)NCNS2(=O)=O | 105%
NS(=O)(=O)c1cc2c(cc1Cl)N=C(CSCc1ccccc1)NS2(=O)=O | 102%
NC(=O)c1cnccn1 | 87%
COc1ccc(-c2oc3ccccc3c(=O)c2O)cc1OC | 109%

Structure (SMILES) | NORMALIZED SGLT1 ACTIVITY (%)
CC(=O)c1ccc[nH]1 | 85%
COc1ccc2[nH]cc(CCNC(C)=O)c2c1 | 199%
CC1(C)C2(Cl)C(Cl)C(Cl)C(Cl)(C(Cl)Cl)C1(Cl)C2Cl (stereo not shown) | 72%
[Na+].[Na+].[O-]c1c(Cl)cc(Cl)cc1Sc1cc(Cl)cc(Cl)c1[O-] | 221%
Nc1ccc(S(=O)(=O)Nc2nccs2)cc1 | 117%
CC(=O)O[C@H]1C[C@@H](OC(C)=O)C(C)(C)C2C[C@@H](OC(C)=O)[C@]3(C)C(CC[C@@]4(C)[C@H](c5ccoc5)OC(=O)[C@H]5O[C@]543)[C@]21C (stereo partly shown) | 132%
CC(C)c1c(O)ccc2c1CCC1[C@@](C)(CO)CCC[C@]21C (stereo partly shown) | 160%
CC(=O)NCCCCCC(=O)O | 105%
O=C(O)c1cccnc1Nc1cccc(C(F)(F)F)c1 | 224%
CCC(C)C(=O)c1c(O)c(C)c2oc3c(C)c(O)c(C(=O)C(C)CC)c(O)c3c2c1O (stereo not shown) | 188%
COc1cc(C/C=C/c2ccccc2)c(OC)cc1O | 145%
COC1=CC(=O)C(O)=C/C1=C\C=C\c1ccccc1 | 112%
COC(=O)c1c(C)cc(OC(=O)c2c(C)cc(O)c(C=O)c2O)c(C)c1O | 95%
COc1cccc(-c2cc(=O)c3cc(OC)ccc3o2)c1 | 154%
Cl.NCCc1cc(O)c(O)cc1O | 118%
CC(Oc1ccccc1)C(=O)N[C@@H]1C(=O)N2[C@@H]1SC(C)(C)[C@@H]2C(=O)[O-].[K+] (stereo partly shown) | 106%
CC(C)C(C)/C=C/C(C)[C@H]1CCC2C3=CCC4CC(=O)CC[C@]4(C)C3CC[C@@]21C (stereo partly shown) | 82%
CC(=O)OC1CCC23CC1(C)CCC2C(C)(C)CC3OC(C)=O (stereo not shown) | 91%
CC(C)(C)NCC(O)COc1cccc2c1C[C@H](O)[C@H](O)C2 (stereo partly shown) | 85%
O=C(O)c1nc2cc(Cl)c(Cl)cc2nc1O | 100%
CC(C(=O)O)c1cccc(Oc2ccccc2)c1 (stereo not shown) | 177%

Structure (SMILES) | NORMALIZED SGLT1 ACTIVITY (%)
CC(=O)N[C@@H](Cc1c[nH]c2ccccc12)C(=O)O | 95%
C=C[C@@](C)(O)CCC1C(=C)CCC2[C@@](C)(CO)CCC[C@]12C (stereo partly shown) | 85%
Nc1ccn(C2O[C@H](CO)[C@@H](O)[C@H]2O)c(=O)n1 (stereo partly shown) | 107%
CCC(=O)O[C@H]1CCC2C3CCC4=CC(=O)CC[C@]4(C)C3CC[C@@]21C (stereo partly shown) | 69%
COc1cc([C@@H]2c3cc4c(cc3[C@H](O)[C@H]3COC(=O)[C@@H]23)OCO4)cc(OC)c1OC | 99%
C[C@]12CCC(=O)C=C1CCC1C2C(=O)C[C@@]2(C)C1CC[C@]2(O)C(=O)CO (stereo partly shown) | 222%
Br.COC(=O)C1=CCCN(C)C1 | 81%
C#CCCCCCCCCCCCC(O)CC(O)CO.C=CCCCCCCCCCCCC(O)CC(O)CO (stereo not shown) | 147%
CCN(CC)CC(=O)Nc1c(C)cccc1C.Cl | 72%
COc1cc2ccc(=O)oc2c(OC)c1OC | 257%
N#C/C(=C\c1ccc(O)cc1)C(=O)O | 120%
Oc1ccc2c(c1)OC[C@]1(O)Cc3cc(O)c(O)cc3[C@H]21 | 153%
CC(C)=CC1C(C(=O)O)C1(C)C (stereo not shown) | 148%
COC(=O)C[C@H]1C(C)(C)C(=O)[C@@H]2CC3=C4CC(OC)O[C@@H](c5ccoc5)[C@]4(C)CCC3[C@@]1(C)C2=O (stereo partly shown) | 105%
C[C@](N)(Cc1ccc(O)cc1)C(=O)O | 94%
Oc1ccc2c(c1)O[C@H](c1ccc(O)c(O)c1)[C@@H](O)C2 | 103%
COc1ccc2c(=O)cc(-c3ccccc3OC)oc2c1 | 139%
CN1CCCN=C1/C=C/c1cccs1.O=C(O)c1cc2ccccc2c(Cc2c(O)c(C(=O)O)cc3ccccc23)c1O | 129%
O=C([O-])c1cc(=O)c2c(OCC(O)COc3cccc4oc(C(=O)[O-])cc(=O)c34)cccc2o1.[Na+].[Na+] | 101%
